Experimental data: PubChem BioAssay AID662 (National Center for Advancing Translational Sciences (NCATS), 2007)
About 1,800 (2.5%) of roughly 71,000 compounds were called active. Inconclusive means that the source gave no clear call. Such entries were picked first, then a sample of the others. The call rests on the fitted dose curve; in most records, active means well fitted activation curve with a large enough effect in the signal ratio, with a control signal flat (not every such curve was filed as active); inconclusive means small, poorly fitted or top-dose-only effect, or effect the other way, or a change in a side signal; inactive means flat fitted curve, though single readings scatter; the % refers to the signal ratio. Potencies of inconclusive entries are doubtful fits and often do not repeat.

Assay: Cell signaling CRE-BLA (Fsk stim); on activity change, negative = inhibition: % of control where 0% means no effect
Settings: CHO CRE-bla reporter (cAMP response element driving beta-lactamase), forskolin EC10, beta-lactamase ratio
Source text: NIH Molecular Libraries Screening Centers Network [MLSCN]
NIH Chemical Genomics Center [NCGC]
Assay Provider: Marshall W. Nirenberg, U.S. National heart lung & blood institute
Memories persist for different lengths of time, from seconds or minutes to a lifetime. There are two kinds of memory: short-term memory (STM) and long-term memory (LTM). STM lasts for minutes to hours, which maybe mediated by modifications of molecules involved in synaptic functions. LTM lasts for days or longer, and may be due to the formation of new synapses or restructuring of existing synapses. LTM, but not STM, requires gene transcription and synthesis of proteins. CREB (cyclic-AMP Responsive Element Binding Protein) is one of the candidates plays an important role for enhancement of some types of LTM. CREB, a family of transcription factors, regulates the transcription of genes containing cAMP Responsive Elements (CRE). CRE is a nucleotide sequence often found in the promoter regions of genes that are binding sites for CREB.
Using a beta-lactamase reporter-gene under control of cAMP responsive element, a cell-based assay [CellSensor(TM) CRE-bla CHO developed by Invitrogen Corp.] was used to measure forskolin-induced signaling. Library compounds were measured for their ability to modulate positively or negatively the action of EC10 NKH 477, a water soluble forskolin, on reporter gene activity. Compounds were screened in a titration series in 1536-well format. Positive and negative modulators were identified based on the AC50 values derived from the screening data.
NCGC Assay Protocol Summary
2000 cells/5uL in Opti-MEM medium containing 0.5% dialyzed FBS, 0.1 mM NEAA, 1 mM sodium pyruvate and 10 mM HEPES was dispensed into 1536-well plates and cells were cultured at 37 degrees Celsius overnight. […] And then the plates were incubated at 37 degrees Celsius for 3 hours. 1 uL of CCF4-dye mixture was added to each well. After incubated at room temperature for 2 hours the plates were measured on an EnVision plate reader at Excitation 405nm, Emission1=460nm and Emission 2=530nm. The %Activity was determined from the ratio of 460nm/530nm.
Keywords: NIH Roadmap, MLSCN, MLSMR, qHTS, NCGC, CRE, beta-lactamase reporter-gene assay.

[1] = activity change, negative = inhibition: at 38.2 µM (top of the series) unless noted
Potency means the concentration at half of the fitted maximal effect; tags describe the fitted curve by direction and shape.

O=C(Nc1ccccc1N1CCN(C(=O)c2ccc(Cl)cc2)CC1)c1cccnc1
Potency [1]: inconclusive: 20 µM [falling, single point]

O=C(CCNS(=O)(=O)c1ccc(Br)s1)NC1CCCC1
activity change, negative = inhibition [1]: inconclusive: -0.0702%

CCOC(=O)N1CCN(S(=O)(=O)c2ccc(C(=O)Nc3sc4c(c3C#N)CCC4)cc2)CC1
activity change, negative = inhibition [1]: inactive

Cc1nn2c(=O)cc(CSc3nc4ccccc4[nH]3)nc2s1
Potency [1]: active: 3.98 µM

CCn1c2ccccc2c2nnc(SCc3ccc(C(=O)OC)o3)nc21
Potency [1]: active: 2 µM

COc1cccc(Cn2nnc(C(=O)Nc3cc(Cl)ccc3OC)c2N)c1
Potency [1]: inconclusive: 6.31 µM [rising, partial curve]

CCn1c2ccccc2c2cc(NC(=O)N3CCOCC3)ccc21
Potency [1]: inconclusive: 10 µM [rising, partial curve]

O=C(CCCSc1nc2ccccc2[nH]1)NC1=NCCS1
Potency [1]: inconclusive: 10 µM [rising, partial curve]

COC(=O)C1=C(C)Nc2nc(-c3ccccc3)nn2C1c1ccc(C)o1 (configuration not stated)
Potency [1]: active: 12.6 µM

CC(C)CN1CC[C@@]2(CCCN(S(=O)(=O)c3ccccc3)C2)C1
activity change, negative = inhibition [1]: inactive

COc1ccc2[nH]c(=O)c(CNC3CCCCC3)cc2c1
activity change, negative = inhibition [1]: inactive

CCc1nc(SCC(=O)Nc2cccc(C(F)(F)F)c2)c2c(=O)n(C)c(=O)n(C)c2n1
Potency [1]: inconclusive: 25.1 µM [rising, single point]

CNC(=O)c1cccc(N2CCCC2=O)c1
Potency [1]: inconclusive: 0.1 µM [falling, full curve, poor fit]

COCC(=O)N1CCC2(CC1)CCN(C(=O)NC(C)C)CC2
activity change, negative = inhibition [1]: inactive

COc1ccc(C(=O)CCC(=O)O)cc1
activity change, negative = inhibition [1]: inactive

CC(C)C(c1nnnn1Cc1ccco1)N1CCN(c2nc3ccccc3s2)CC1 (configuration not stated)
activity change, negative = inhibition [1]: inconclusive: -21.2%

CCC(c1nnnn1C1CCCCC1)N(Cc1ccco1)Cc1cc2ccc(OC)cc2[nH]c1=O (configuration not stated)
activity change, negative = inhibition [1]: inconclusive: 25.2%

Cn1c(=O)cc(OCCCC(=O)N2CCN(c3ccccn3)CC2)c2ccccc21
Potency [1]: inconclusive: 10 µM [rising, partial curve]

CCOC(=O)c1c(NC(=O)c2noc3c2CCCC3)sc2c1CCCC2
activity change, negative = inhibition [1]: inconclusive: 14.1%

C#C[C@@]1(O)CC[C@@H]2[C@@H]3CCC4=CC(=O)CC[C@@H]4[C@H]3CC[C@]21C
activity change, negative = inhibition [1]: inactive

Cc1cc(Nc2ccc(C(C)C)cc2)n2ncnc2n1
Potency [1]: inconclusive: 25.1 µM [rising, single point]

Cc1cc(NCc2ccc3c(c2)OCO3)n2nc(C)nc2n1
Potency [1]: inconclusive: 12.6 µM [rising, single point]

Cc1cc2c(c(=O)n1CCc1ccccc1)C(C(C)C)C(C#N)=C(N)O2 (configuration not stated)
activity change, negative = inhibition [1]: inactive

CCCSc1ccc2nc(NC(=O)OC)[nH]c2c1
Potency [1]: active: 7.94 µM

COc1ccc(Nc2nc(C)cc(C)c2C#N)cc1
activity change, negative = inhibition [1]: inactive

COC(=O)CSc1nnc2n(C3CCCCC3)c(=O)c3c4c(sc3n12)CCCC4
Potency [1]: inconclusive: 12.6 µM [rising, partial curve]

COC(=O)c1c(NC(=O)c2cccs2)sc2c1CCCC2
activity change, negative = inhibition [1]: inconclusive: 22.9% [fluorescent]

CC(C)=N[C@H](C(=O)O)C(C)(C)S
activity change, negative = inhibition [1]: inactive: 1.63% [at 7.6 µM]

CC1(C)CC(=O)C2=C(C1)OC(N)=C(C#N)C2C#Cc1ccccc1 (configuration not stated)
activity change, negative = inhibition [1]: inactive

COc1ccc(C(=O)Oc2c(CN3CCOCC3)cc(Cl)c3cccnc23)cc1
activity change, negative = inhibition [1]: inactive

Nn1c(SCC(=O)N2CCCc3ccccc32)nnc1-c1ccc(Cl)cc1
activity change, negative = inhibition [1]: inactive

COc1ccc(Cc2nnc(NC(=O)c3cccs3)s2)cc1
Potency [1]: inconclusive: 7.94 µM [rising, partial curve]

CN1CCN(c2nc3c(c(=O)n(C)c(=O)n3C)n2CC(=O)C23CC4CC(CC(C4)C2)C3)CC1
activity change, negative = inhibition [1]: inconclusive: 8.62%

COCCCNC(=O)CS(=O)Cc1nc(-c2cccc(OC)c2)oc1C (configuration not stated)
activity change, negative = inhibition [1]: inconclusive: -3.25%

COc1cc2c(cc1OC)C(CCN)=NCC2
activity change, negative = inhibition [1]: inactive: -2.07% [at 7.6 µM]

COc1ccc(-c2nsc3c(N4CCN(S(=O)(=O)c5ccccc5)CC4)ncnc23)cc1
activity change, negative = inhibition [1]: inactive

CCCn1c(OC)nc2c1c(=O)n(C)c(=O)n2C
activity change, negative = inhibition [1]: inconclusive: 28.8%

Cc1c(N=C/C=C2\N(C)c3ccccc3C2(C)C)c(=O)n(-c2ccccc2)n1C
activity change, negative = inhibition [1]: inactive

Nc1ccccc1C(=O)C[C@@H](N)C(=O)O
activity change, negative = inhibition [1]: inconclusive: -12.3%

Cn1c(=O)oc2cc(S(=O)(=O)NC3CCCCCCC3)ccc21
Potency [1]: inconclusive: 20 µM [rising, single point]

Cc1ccc(C)c2[nH]c(=O)c(CN(Cc3nnnn3C3CCCCC3)CC3CCCO3)cc12 (configuration not stated)
activity change, negative = inhibition [1]: inactive

COC(=O)[C@@H]1[C@@H]2C[C@H]3c4[nH]c5cc(OC)ccc5c4CCN3C[C@@H]2C[C@H](OC(=O)/C=C\c2cc(OC)c(OC)c(OC)c2)[C@H]1OC
activity change, negative = inhibition [1]: inactive

O=c1[nH]cc(CS(=O)(=O)Cc2c[nH]c(=O)[nH]c2=O)c(=O)[nH]1
activity change, negative = inhibition [1]: inactive: 1.92% [at 7.6 µM]

Cc1cc(=O)[nH]c(Nc2cccc(C(F)(F)F)c2)n1
activity change, negative = inhibition [1]: inactive

Cc1cc2cc(C(c3nnnn3Cc3ccco3)N3CCc4ccccc43)c(=O)[nH]c2cc1C (configuration not stated)
activity change, negative = inhibition [1]: inactive

COC(=O)C1=C(N)Oc2cc(N(C)C)ccc2C1c1ccccc1OC (configuration not stated)
Potency [1]: inconclusive: 10 µM [rising, single point]

COCCNC(=O)C(c1ccc(C)o1)N(CC1CCCO1)C(=O)Cn1nnc2ccccc21 (configuration not stated)
Potency [1]: inconclusive: 0.126 µM [falling, single point]

N=c1c(C(=O)NCc2ccc(F)cc2)cc2c(=O)n3ccccc3nc2n1CC1CCCO1 (configuration not stated)
Potency [1]: active: 2 µM

CCOc1cccc2cc(C(=O)Nc3nccs3)c(=O)oc12
activity change, negative = inhibition [1]: inconclusive: -0.467%

Cc1ccc(-c2cc(C(=O)NCc3ccco3)no2)cc1
activity change, negative = inhibition [1]: inconclusive: -6.49%

COc1cc2c(cc1O)CC[C@@H]1[C@@H]2CC[C@@]2(C)[C@H](O)CC[C@H]12
Potency [1]: inconclusive: 12.6 µM [rising, single point]

O=C(O)CN1C(=O)O[C@@H](c2ccccc2)C1=O
activity change, negative = inhibition [1]: inactive: 7.18% [at 7.6 µM]

CN1CCN(c2ncc3nc(-c4ccccc4)c(=O)n(-c4ccccc4)c3n2)CC1
Potency [1]: inconclusive: 6.31 µM [rising, partial curve]

COC(=O)CNC(=O)COC(=O)C(Cc1ccccc1)NC(=O)c1ccco1 (configuration not stated)
activity change, negative = inhibition [1]: inconclusive: 16.2%

Cc1cc(N2CCN(C)CC2)nc2ccc(NC(=O)CCC(=O)NCCC3=CCCCC3)cc12
activity change, negative = inhibition [1]: inconclusive: -1.26%

CC1CCCN(CCCNC(=O)c2coc3nc4ccccc4nc23)C1 (configuration not stated)
activity change, negative = inhibition [1]: inconclusive: 82.2%

CC1CCCCN1CCNC(=O)CC1Oc2ccccc2NC1=O (configuration not stated)
activity change, negative = inhibition [1]: inactive

O=C(c1ccccc1)c1ccc(C(=O)N2CCN(c3ccc(F)cc3)CC2)o1
activity change, negative = inhibition [1]: inactive

COc1ccc(-c2oc3cc(OC)c(OC(C)=O)c(OC)c3c(=O)c2OC)cc1OC(C)=O
Potency [1]: inconclusive: 0.2 µM [rising, full curve, poor fit]

Cc1c(C(=O)NCCCN2CCCC2=O)oc2ccccc12
activity change, negative = inhibition [1]: inconclusive: 8.76%

Cc1cc(NC(=O)c2cccc(C(=O)Nc3cc(C)on3)n2)no1
activity change, negative = inhibition [1]: inconclusive: -12.2%

CCOc1ccccc1Nc1nnc(SCc2ccc(C(=O)OC)o2)s1
Potency [1]: inconclusive: 12.6 µM [rising, single point]

CSc1ccccc1NC(=O)c1cnc2scc(C)n2c1=O
Potency [1]: inconclusive: 12.6 µM [rising, single point]

Cc1ccc(-n2c(Cc3cccn3C)nnc2SCC(=O)Nc2ccc3c(c2)OCO3)cc1
activity change, negative = inhibition [1]: inconclusive: -9.19%

CC(C)c1ccc2oc(-c3ccc(NC(=O)c4ncn[nH]4)cc3)nc2c1
activity change, negative = inhibition [1]: inconclusive: 8.17% [cytotoxic]

O=c1c2c3c(sc2nc2sc(C4CC4)nn12)CCCC3
Potency [1]: inconclusive: 5.01 µM [rising, single point]

Cc1nc2c(-c3ccccc3)c(C)nn2c(C)c1CC(=O)O
activity change, negative = inhibition [1]: inconclusive: -7.34%

O=C(Cn1cnc2ccccc2c1=O)NCCC(=O)N1CCN(c2ccccc2)CC1
activity change, negative = inhibition [1]: inactive

O=C(Nc1ccon1)c1cc(-c2ccccc2)nc2ccccc12
Potency [1]: inconclusive: 10 µM [rising, single point]

Cc1cc2c(C(C)C)c(O)c(O)c(C=O)c2c(O)c1-c1c(C)cc2c(C(C)C)c(O)c(O)c(C=O)c2c1O
activity change, negative = inhibition (at 17.1 µM (top of the series)): inconclusive: -23.1%
activity change, negative = inhibition (at 38.2 µM (top of the series)): inconclusive: -7.93%

COc1ccc2nc(NCc3ccccc3)[nH]c2c1
activity change, negative = inhibition [1]: inconclusive: 22.6%

CCCCC(=O)NCCc1c(Cc2ccccc2)[nH]c2ccccc12
activity change, negative = inhibition [1]: inconclusive: -26.6%

COc1cc(NCC[C@@H]2CCCCN2)c2ncccc2c1
activity change, negative = inhibition [1]: inactive: 20.3% [at 7.6 µM]

CCOC(=O)C1CCN(C(=O)CSc2ccccc2)CC1
activity change, negative = inhibition [1]: inconclusive: -6.43%

COc1ccc2c(=O)cc(-c3ccccc3)oc2c1O
Potency [1]: inconclusive: 25.1 µM [rising, single point]

O=C(Nc1ccn(Cc2ccc(F)cc2)n1)c1ccncc1
activity change, negative = inhibition [1]: inconclusive: -18%

COCCNc1nc(C)nc2c1nc(-c1ccccc1)n2CCN1CCCCC1
activity change, negative = inhibition [1]: inconclusive: 28.2%

O=C(N/N=C\c1ccc([N+](=O)[O-])o1)c1ccc(O)cc1
activity change, negative = inhibition [1]: inactive

CC(C)c1cccc2cc3c(nc12)-c1cccc(=O)n1C3
Potency [1]: inconclusive: 10 µM [rising, partial curve]

Cc1cccc2c(=O)c(C(=O)N3CCCCCC3)c[nH]c12
Potency [1]: inconclusive: 15.8 µM [rising, single point]

Cc1cc(C)nc(N2CCN(c3nnnn3-c3ccccc3)CC2)n1
activity change, negative = inhibition [1]: inconclusive: 2.03%
